# This is one part of the list.
# B1: Tap1 (Sordaria macrospora), Q50IV4 (protein)
# chain: MSHHHHHHHHYTLHLRLINDTSDTLTLVEQTSWWGKNTIWSQVRSTGVHVLSMAASGSSGMLRFQTSKGDFFAVAVGVHNYKRWCDVLVDTADEAPLTKLHPKYYDDKDAKYQALWAQASEFEAKSKSGKTVRIKFYQADGNVLRATVEYL
# Key:
# Assay in all cases: glycan array binding signal (z-score within array); higher = stronger binding
# Conditions in all cases: glycan notation: IUPAC condensed, linker removed
# GalNAc(b1-3)GalNAc = target: GalNAc(b1-3)GalNAc
# In short: (§1)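 Negative Z-scores can be read as non-binding. The Z-score is calculated within each array and then averaged across arrays of one protein sequence at different concentrations or buffers and across linkers. Arrays, 3228 in all, were curated from the Consortium for Functional Glycomics database and kept only where the protein sequence was available.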
# GalNAc(b1-4)GlcNAc = target: GalNAc(b1-4)GlcNAc
# In short: as §1
# [1] = target: GalNAc(b1-4)GlcNAc(b1-2)Man(a1-3)[GalNAc(b1-4)GlcNAc(b1-2)Man(a1-6)]Man(b1-4)GlcNAc(b1-4)GlcNAc
# In short: as §1
# GalNAc(b1-6)GalNAc = target: GalNAc(b1-6)GalNAc
# In short: as §1
# Glc(a1-4)Glc = target: Glc(a1-4)Glc
# In short: as §1
# Glc(a1-6)Glc(a1-6)Glc = target: Glc(a1-6)Glc(a1-6)Glc
# In short: as §1
# Glc(b1-4)Glc = target: Glc(b1-4)Glc
# In short: as §1
# Glc(b1-6)Glc = target: Glc(b1-6)Glc
# In short: as §1
# GlcA(b1-3)Gal = target: GlcA(b1-3)Gal
# In short: as §1
# GlcA(b1-3)GlcNAc = target: GlcA(b1-3)GlcNAc
# In short: as §1
# GlcA(b1-6)Gal = target: GlcA(b1-6)Gal
# In short: as §1
# [2] = target: GlcNAc(a1-3)Gal(b1-4)GlcNAc
# In short: as §1
# [3] = target: GlcNAc(a1-4)Gal(b1-3)GlcNAc
# In short: as §1
# [4] = target: GlcNAc(a1-4)Gal(b1-4)GalNAc
# In short: as §1
# [5] = target: GlcNAc(a1-4)Gal(b1-4)GlcNAc
# In short: as §1
# [6] = target: GlcNAc(a1-4)Gal(b1-4)GlcNAc(b1-3)Gal(b1-4)Glc
# In short: as §1
# [7] = target: GlcNAc(a1-4)Gal(b1-4)GlcNAc(b1-3)Gal(b1-4)GlcNAc
# In short: as §1
# [8] = target: GlcNAc(a1-4)Gal(b1-4)GlcNAc(b1-3)Gal(b1-4)GlcNAc(b1-3)Gal(b1-4)GlcNAc
# In short: as §1
# [9] = target: GlcNAc(a1-4)Gal(b1-4)GlcNAc(b1-3)Gal(b1-4)[Fuc(a1-3)]GlcNAc(b1-3)Gal(b1-4)[Fuc(a1-3)]GlcNAc
# In short: as §1
# [10] = target: GlcNAc(a1-6)Gal(b1-4)GlcNAc
# In short: as §1
# [11] = target: GlcNAc(b1-2)Gal(b1-3)GalNAc
# In short: as §1
# [12] = target: GlcNAc(b1-2)Man(a1-3)[GlcNAc(b1-2)Man(a1-6)]Man(b1-4)GlcNAc(b1-4)GlcNAc
# In short: as §1
# [13] = target: GlcNAc(b1-2)Man(a1-3)[GlcNAc(b1-2)Man(a1-6)]Man(b1-4)GlcNAc(b1-4)[Fuc(a1-6)]GlcNAc
# In short: as §1
# [14] = target: GlcNAc(b1-2)Man(a1-3)[GlcNAc(b1-4)][GlcNAc(b1-2)Man(a1-6)]Man(b1-4)GlcNAc(b1-4)GlcNAc
# In short: as §1
# [15] = target: GlcNAc(b1-2)[GlcNAc(b1-4)]Man(a1-3)[GlcNAc(b1-2)Man(a1-6)]Man(b1-4)GlcNAc(b1-4)GlcNAc
# In short: as §1
# [16] = target: GlcNAc(b1-2)[GlcNAc(b1-4)]Man(a1-3)[GlcNAc(b1-4)][GlcNAc(b1-2)Man(a1-6)]Man(b1-4)GlcNAc(b1-4)GlcNAc
# In short: as §1
# [17] = target: GlcNAc(b1-2)[GlcNAc(b1-4)]Man(a1-3)[GlcNAc(b1-4)][GlcNAc(b1-2)[GlcNAc(b1-6)]Man(a1-6)]Man(b1-4)GlcNAc(b1-4)GlcNAc
# In short: as §1
# [18] = target: GlcNAc(b1-2)[GlcNAc(b1-6)]Man(a1-6)[GlcNAc(b1-2)Man(a1-3)]Man(b1-4)GlcNAc(b1-4)GlcNAc
# In short: as §1
# [19] = target: GlcNAc(b1-2)[GlcNAc(b1-6)]Man(a1-6)[GlcNAc(b1-2)Man(a1-3)][GlcNAc(b1-4)]Man(b1-4)GlcNAc(b1-4)GlcNAc
# In short: as §1
# GlcNAc(b1-3)Gal = target: GlcNAc(b1-3)Gal
# In short: as §1
# [20] = target: GlcNAc(b1-3)Gal(b1-3)GalNAc
# In short: as §1
# GlcNAc(b1-3)Gal(b1-4)Glc = target: GlcNAc(b1-3)Gal(b1-4)Glc
# In short: as §1
# [21] = target: GlcNAc(b1-3)Gal(b1-4)GlcNAc
# In short: as §1
# [22] = target: GlcNAc(b1-3)Gal(b1-4)GlcNAc(b1-3)Gal(b1-4)GlcNAc
# In short: as §1
# GlcNAc(b1-3)GalNAc = target: GlcNAc(b1-3)GalNAc
# In short: as §1
# GlcNAc(b1-3)Man = target: GlcNAc(b1-3)Man
# In short: as §1
# [23] = target: GlcNAc(b1-3)[GlcNAc(b1-4)][GlcNAc(b1-6)]GlcNAc
# In short: as §1
# [24] = target: GlcNAc(b1-3)[GlcNAc(b1-6)]Gal(b1-4)GlcNAc
# In short: as §1
# [25] = target: GlcNAc(b1-3)[GlcNAc(b1-6)]GalNAc
# In short: as §1
# [26] = target: GlcNAc(b1-4)Gal(b1-4)GlcNAc
# In short: as §1
# GlcNAc(b1-4)GlcNAc = target: GlcNAc(b1-4)GlcNAc
# In short: as §1
# [27] = target: GlcNAc(b1-4)GlcNAc(b1-4)GlcNAc
# In short: as §1
# [28] = target: GlcNAc(b1-4)GlcNAc(b1-4)GlcNAc(b1-4)GlcNAc(b1-4)GlcNAc
# In short: as §1
# [29] = target: GlcNAc(b1-4)GlcNAc(b1-4)GlcNAc(b1-4)GlcNAc(b1-4)GlcNAc(b1-4)GlcNAc
# In short: as §1
# [30] = target: GlcNAc(b1-4)[GlcNAc(b1-6)]GalNAc
# In short: as §1
binder,measurement,setting,value
B1,glycan array binding signal (z-score),GalNAc(b1-3)GalNAc,1.16
same,glycan array binding signal (z-score),GalNAc(b1-4)GlcNAc,-0.246
same,glycan array binding signal (z-score),[1],-0.225
same,glycan array binding signal (z-score),GalNAc(b1-6)GalNAc,-0.242
same,glycan array binding signal (z-score),Glc(a1-4)Glc,-0.233
same,glycan array binding signal (z-score),Glc(a1-6)Glc(a1-6)Glc,-0.242
same,glycan array binding signal (z-score),Glc(b1-4)Glc,-0.205
same,glycan array binding signal (z-score),Glc(b1-6)Glc,-0.23
same,glycan array binding signal (z-score),GlcA(b1-3)Gal,-0.223
same,glycan array binding signal (z-score),GlcA(b1-3)GlcNAc,1.82
same,glycan array binding signal (z-score),GlcA(b1-6)Gal,-0.247
same,glycan array binding signal (z-score),[2],-0.235
same,glycan array binding signal (z-score),[3],-0.234
same,glycan array binding signal (z-score),[4],0.868
same,glycan array binding signal (z-score),[5],-0.017
same,glycan array binding signal (z-score),[6],-0.223
same,glycan array binding signal (z-score),[7],-0.21
same,glycan array binding signal (z-score),[8],-0.205
same,glycan array binding signal (z-score),[9],0.762
same,glycan array binding signal (z-score),[10],-0.244
same,glycan array binding signal (z-score),[11],2.86
same,glycan array binding signal (z-score),[12],-0.13
same,glycan array binding signal (z-score),[13],-0.216
same,glycan array binding signal (z-score),[14],-0.237
same,glycan array binding signal (z-score),[15],-0.234
same,glycan array binding signal (z-score),[16],-0.249
same,glycan array binding signal (z-score),[17],-0.237
same,glycan array binding signal (z-score),[18],-0.236
same,glycan array binding signal (z-score),[19],-0.248
same,glycan array binding signal (z-score),GlcNAc(b1-3)Gal,-0.244
same,glycan array binding signal (z-score),[20],2.84
same,glycan array binding signal (z-score),GlcNAc(b1-3)Gal(b1-4)Glc,-0.241
same,glycan array binding signal (z-score),[21],-0.246
same,glycan array binding signal (z-score),[22],-0.248
same,glycan array binding signal (z-score),GlcNAc(b1-3)GalNAc,1.62
same,glycan array binding signal (z-score),GlcNAc(b1-3)Man,-0.237
same,glycan array binding signal (z-score),[23],-0.246
same,glycan array binding signal (z-score),[24],-0.248
same,glycan array binding signal (z-score),[25],-0.007
same,glycan array binding signal (z-score),[26],-0.233
same,glycan array binding signal (z-score),GlcNAc(b1-4)GlcNAc,-0.175
same,glycan array binding signal (z-score),[27],-0.256
same,glycan array binding signal (z-score),[28],-0.258
same,glycan array binding signal (z-score),[29],-0.248
same,glycan array binding signal (z-score),[30],-0.248
